The source of these data is the BET-seq Pho4 binding data (Le et al. 2018).

The other results are listed elsewhere or left out. The energies were worked out here from pooled read counts, against the library average; single values are noisy.

The experiment addresses T1, Pho4 (S. cerevisiae) (UniProt P07270).
T1 sequence: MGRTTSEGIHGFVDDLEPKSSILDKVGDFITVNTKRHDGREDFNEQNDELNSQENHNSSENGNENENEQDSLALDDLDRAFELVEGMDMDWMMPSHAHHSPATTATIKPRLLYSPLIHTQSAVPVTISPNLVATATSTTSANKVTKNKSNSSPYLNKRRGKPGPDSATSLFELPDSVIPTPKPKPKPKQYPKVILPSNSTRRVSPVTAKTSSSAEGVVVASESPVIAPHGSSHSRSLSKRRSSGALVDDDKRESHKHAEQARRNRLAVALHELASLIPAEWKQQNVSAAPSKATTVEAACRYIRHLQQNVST
Kind of experiment: relative binding free energy (BET-seq); higher = weaker binding. Conditions: reference: library average.
For the sequence TGAGTCACGTGGGAGG, the “relative binding free energy” value is 0.04 kcal/mol. For TGTAGCACGTGTATCT, the “relative binding free energy” value was -0.09 kcal/mol. In the case of GTAGACACGTGCATGG it was -0.08 kcal/mol; in that of GTGTTCACGTGTGTAC, 0.27 kcal/mol; in that of GGCTACACGTGATAGG, 0.3 kcal/mol. In the case of TGGCCCACGTGGTAGG, the “relative binding free energy” value was -0.12 kcal/mol. Regarding GTCGGCACGTGGCTTG, the “relative binding free energy” value was -0.22 kcal/mol. As to GAGTTCACGTGTAGCT, the “relative binding free energy” value stood at 0.35 kcal/mol. In the case of GTAGGCACGTGGTGGT it was -0.06 kcal/mol; in that of CGGGGCACGTGCAGGA, -0.15 kcal/mol. On to GAGATCACGTGGTGCG, for which the “relative binding free energy” value was found to be 0.11 kcal/mol. Then ATTAGCACGTGTTACG, with -0.01 kcal/mol. In the case of GTGATCACGTGTGTCT it was 0.3 kcal/mol. Then CGTCTCACGTGTTAGT, with 0.15 kcal/mol; and GGACGCACGTGCGGGT, with -0.17 kcal/mol. On to CGGTACACGTGTTGGA, for which the “relative binding free energy” value is 0.08 kcal/mol. Then CTATTCACGTGTTGAA, with 0.41 kcal/mol.

For TTTGTCACGTGTACGT, the “relative binding free energy” value amounted to 0.18 kcal/mol. Then CTAGTCACGTGTGTAT, with 0.03 kcal/mol; and CCAGTCACGTGGTGGT, with 0.13 kcal/mol. Then ATTTACACGTGGGAAA, with 0.09 kcal/mol; and GGGTTCACGTGTGCTA, with 0.19 kcal/mol. Then ATGTACACGTGTTGGA, with 0.05 kcal/mol; and AGTGTCACGTGTCGCT, with 0.13 kcal/mol. Consider GTAAACACGTGATGGT, for which the “relative binding free energy” value is 0.11 kcal/mol. TGTATCACGTGTCCTT: the “relative binding free energy” value came out at 0.09 kcal/mol. In the case of TTTTGCACGTGACGGG it was 0.12 kcal/mol; in that of ACTCGCACGTGGGGGA, -0.25 kcal/mol; in that of GGGTCCACGTGGTTAA, 0.04 kcal/mol. With TCTTTCACGTGGGGTA, the “relative binding free energy” value turned out to be 0.1 kcal/mol. Then ATTTACACGTGCGTTT, with 0.06 kcal/mol; and TATTTCACGTGCGTTG, with 0.26 kcal/mol. Take CGTTACACGTGCTTGT: the “relative binding free energy” value was determined as 0.01 kcal/mol. For CAGGGCACGTGTGTTT, the “relative binding free energy” value was -0.03 kcal/mol.

Consider CGTTACACGTGTGGTC, for which the “relative binding free energy” value amounted to 0.16 kcal/mol. Then TTAGTCACGTGCGGGG, with 0.08 kcal/mol. Then GTATACACGTGGGTTC, with 0.03 kcal/mol; and TAGTTCACGTGCGGTT, with 0.25 kcal/mol.

On to TCTGGCACGTGAGGTT, for which the “relative binding free energy” value came out at 0.04 kcal/mol.

Turning to AGTGGCACGTGGGTAC, the “relative binding free energy” value was -0.25 kcal/mol. In the case of TTGAGCACGTGGTGGC it was -0.16 kcal/mol; in that of CGGTGCACGTGTTTGT, 0.03 kcal/mol; in that of TGTCGCACGTGATTTT, 0.04 kcal/mol. Consider TAAGGCACGTGGGCGA, for which the “relative binding free energy” value is -0.31 kcal/mol. Then TGTAGCACGTGGAATG, with -0.03 kcal/mol; and TTTGTCACGTGGGGAA, with 0.06 kcal/mol. Then CGTTGCACGTGTGGTG, with -0.02 kcal/mol. In the case of TTTTTCACGTGTTCAC, the “relative binding free energy” value stood at 0.36 kcal/mol. In the case of CATATCACGTGGTTGT it was 0.06 kcal/mol. In the case of GTAGGCACGTGGTCTG it was -0.19 kcal/mol. For CGAGTCACGTGGCGGG, the “relative binding free energy” value was found to be 0.13 kcal/mol. AACCGCACGTGGGGTG: the “relative binding free energy” value was -0.14 kcal/mol. Then AGCGTCACGTGTGGGA, with 0.09 kcal/mol; and AAGTTCACGTGAAATT, with 0.36 kcal/mol; and TCGGGCACGTGGATTG, with -0.01 kcal/mol. For TGGTGCACGTGCAAAG, the “relative binding free energy” value is -0.08 kcal/mol. Then TGACACACGTGTTGTT, with -0.06 kcal/mol; and AGGGTCACGTGTCATA, with 0.11 kcal/mol; and GTTATCACGTGATCTG, with 0.31 kcal/mol.

As to TTATGCACGTGGCTTT, the “relative binding free energy” value is -0.05 kcal/mol. As for ATTGACACGTGATGTC, the “relative binding free energy” value worked out at 0.2 kcal/mol. In the case of CAGATCACGTGTGATG, the “relative binding free energy” value was 0.44 kcal/mol.

Consider CCAGGCACGTGGTGGG, for which the “relative binding free energy” value is -0.15 kcal/mol.

AGTATCACGTGCGCGG: the “relative binding free energy” value worked out at 0 kcal/mol. Turning to AGCGGCACGTGAGGGC, the “relative binding free energy” value amounted to 0.24 kcal/mol. Regarding TTTAACACGTGGGGCA, the “relative binding free energy” value was -0.06 kcal/mol.

TGAGGCACGTGGTATA: the “relative binding free energy” value was -0.12 kcal/mol. In the case of ATTAACACGTGTTGAT it was 0 kcal/mol; in that of GGATTCACGTGGATGT, 0.23 kcal/mol; in that of TTTGTCACGTGGACAA, 0.11 kcal/mol. Then TTAATCACGTGTCGAG, with 0.2 kcal/mol; and TAGAACACGTGGGCGT, with -0.1 kcal/mol. Then CGAGTCACGTGGGCCG, with 0.15 kcal/mol; and TGTTTCACGTGAGTGA, with 0.33 kcal/mol; and TAAGGCACGTGATGTT, with -0.05 kcal/mol. Turning to CGAGTCACGTGGTGTA, the “relative binding free energy” value is -0.03 kcal/mol.

Turning to AAGCTCACGTGTATGT, the “relative binding free energy” value is 0.13 kcal/mol.

Take TTACCCACGTGTTGGT: the “relative binding free energy” value was -0.11 kcal/mol. Then TGCGACACGTGTGAGG, with 0.01 kcal/mol. In the case of CTATGCACGTGTTGAG it was -0.11 kcal/mol; in that of GGGTGCACGTGGTAGT, -0.03 kcal/mol; in that of ATATTCACGTGATTCT, 0.24 kcal/mol. TAAGTCACGTGTTGAG: the “relative binding free energy” value was 0.09 kcal/mol. For the sequence TACAGCACGTGTGTGG, the “relative binding free energy” value was -0.19 kcal/mol. Then TCCTGCACGTGTTGGG, with 0.04 kcal/mol; and AAGTGCACGTGGAGTG, with -0.01 kcal/mol; and GCTTTCACGTGATGTT, with 0.3 kcal/mol.

For the sequence ATGTTCACGTGTATCG, the “relative binding free energy” value stood at 0.25 kcal/mol. In the case of CTGAGCACGTGTAGTA it was -0.05 kcal/mol; in that of TGCATCACGTGATGTT, 0.15 kcal/mol.

In the case of TAGGGCACGTGTATAA, the “relative binding free energy” value was -0.06 kcal/mol. For AGAGGCACGTGTTATA, the “relative binding free energy” value was -0.2 kcal/mol. GTAGGCACGTGTCAGA: the “relative binding free energy” value was 0.01 kcal/mol. In the case of TGTGTCACGTGGCATT it was 0.11 kcal/mol; in that of TTCTACACGTGGGGTA, -0.08 kcal/mol. Then AATTTCACGTGGATAT, with 0.22 kcal/mol; and GAGCGCACGTGTGGGG, with -0.01 kcal/mol. Take TTGATCACGTGTCGTT: the “relative binding free energy” value was found to be 0.19 kcal/mol. For CGTTTCACGTGGTGTA, the “relative binding free energy” value worked out at 0.21 kcal/mol. For the sequence GGGGGCACGTGTCGTG, the “relative binding free energy” value came to 0.01 kcal/mol.

For the sequence CTGGTCACGTGTGATT, the “relative binding free energy” value came out at 0.26 kcal/mol. As for GTGGGCACGTGGGTTG, the “relative binding free energy” value is -0.19 kcal/mol.

Take TGGGGCACGTGTCTTA: the “relative binding free energy” value is -0.08 kcal/mol. Turning to TGGGTCACGTGGACTA, the “relative binding free energy” value worked out at 0.16 kcal/mol. In the case of GCGTGCACGTGTAAGG it was 0.1 kcal/mol; in that of TAGGTCACGTGGGGTC, 0.07 kcal/mol. With GGGAACACGTGAAGAG, the “relative binding free energy” value worked out at 0.41 kcal/mol. In the case of GTTTTCACGTGGTTGT it was 0.33 kcal/mol.

As to AGTTACACGTGTGGAT, the “relative binding free energy” value amounted to 0.11 kcal/mol.

For the sequence GAGTACACGTGGTTGT, the “relative binding free energy” value stood at 0.05 kcal/mol. For the sequence TAGTGCACGTGCCGTT, the “relative binding free energy” value was -0.14 kcal/mol. For AAGATCACGTGGTTTG, the “relative binding free energy” value was 0.14 kcal/mol. Then GGGTACACGTGGACGT, with 0 kcal/mol.

As for GTGGGCACGTGAGGTT, the “relative binding free energy” value amounted to 0.19 kcal/mol.

Turning to AAGTGCACGTGGGGGA, the “relative binding free energy” value is -0.11 kcal/mol.
